Reference: ChEMBL document CHEMBL4888484, “Replenishing the malaria drug discovery pipeline: Screening and hit evaluation of the MMV Hit Generation Library 1 (HGL1) against asexual blood stage Plasmodium falciparum ,using a nano luciferase reporter read-out” (2022)
In all, about 150,000 compounds went through this assay and about 540 (0.36%) showed an effect of 50% or more. Some of the results follow.

system: Plasmodium falciparum; test: Primary screen in NF54 nanoGlo assay, in single point, at 2uM, 72h; a lower Z score goes with more inhibition; format: functional, Erythrocyte; conditions: timepoint 72 hour

Structure (SMILES) | % Inhibition [%] | Z score
CCn1nccc1NC(=O)c1nc2ccc(F)cc2[nH]1 | 5 | -0.71
COC(=O)c1cc(CN2CCC[C@H](c3nc(C)cs3)C2)c[nH]1 | 7 | -0.9
Cc1c(Cl)cccc1C(=O)NCC1CCCC12NC(=O)NC2=O (stereo not given) | -3 | 0.28
CC(C)c1nnc(NS(=O)(=O)Cc2cccc(C(F)(F)F)c2)o1 | 8 | -0.78
Cc1ccc(C(=O)NCC(=O)N2CCCC2)cn1 | -9 | 1.73
Nc1ccc(Oc2nc(Oc3ccc(N)cc3)c(F)c(Oc3ccc(N)cc3)c2F)cc1 | -3 | 0.28
O=C(CCC1CCCC1)N1CCC[C@H]1C1CCNCC1 | -10 | 1.61
CC1CCC(NC(=O)CN(C)CC(N)=O)CC1 (stereo not given) | -4 | 0.7
CCn1cc(CC(=O)NCC(C)C)c2cccnc21 | -19 | 2.2
O=C(CCc1ccc(=O)[nH]n1)N[C@H]1COCC[C@@H]1Oc1ccccn1 | -8 | 0.99
O=C(NC1(CO)CCCC1)[C@H]1CC(=O)N(CCOc2ccccc2Cl)C1 | -6 | 0.62
CC1CN(C(=O)NC(c2c(F)cccc2F)C(F)(F)F)CCC1=O (stereo not given) | -6 | 0.69
CCCc1cc2c(s1)N[C@H](c1ccc(C)cc1)NC2=O | 6 | -0.66
CN(C(=O)Nc1cccc2cccnc12)C1CC1 | -12 | 2.17
CCOc1cccc(-n2cc(-c3ccccc3)nc2NC(=O)CN(C(=O)c2ccc(Cl)cc2Cl)C2CC2)c1 | -6 | 0.57
CN(Cc1ccccc1F)C(=O)C1=CCC1 | -15 | 1.8
O=C(N[C@H]1CCCn2ncnc21)c1cncc(F)c1 | -12 | 1.8
CCc1nn(C)c(NC(=O)NCc2cnn3cccnc23)c1C | -2 | 0.29
CC(C)CNC(=O)CS(=O)(=O)Cc1ccccc1 | -6 | 1.18
COc1ccc(COCC(=O)NCc2cnn3c2CCCC3)cc1 | 1 | -0.13
O=C(COc1ccccc1)N[C@H]1CCCCNC1=O | -18 | 1.6
CC1CC(NC(=O)c2ccc[nH]2)C(=O)N1c1ccccc1 (stereo not given) | -11 | 2.19

Structure (SMILES) | % Inhibition [%] | Z score
Cc1cccc(NC(=O)CN2CCN(/C(=N\c3cccc(C(=O)O)c3)NC[C@H]3CCCO3)CC2)c1 | -24 | 2.23
CC[C@H](NC(=O)c1c(Cl)cnn1C)c1nc(C)c(C)s1 | -9 | 1.23
c1cc2c(c(-c3ccc(N4CCCC4)nn3)c1)OCC2 | -16 | 2.35
Cc1cc(C)n([C@H]2[C@@H]3OC[C@@H](O3)[C@@H](NCc3cnn(C)c3)[C@@H]2O)n1 | -6 | 0.85
O=S(=O)(N1CCCC1)N1CCC(F)(F)CC1 | -17 | 2.23
Cc1cc(C)n(C(=O)CCCc2ccccc2)n1 | -2 | 0.23
O=C1CCCN1CC(=O)N1CC2(CCC2)[C@@H]1C1CC1 | -1 | 0.21
Cc1nonc1CN(C)Cc1ccnc2ccccc12 | 0 | 0.07
CCN(Cc1nccn1C)C(=O)N[C@@H](C)c1nc(-c2cccc(C)c2)no1 | -1 | 0.13
CCc1cccc(NC(=O)Cn2nc3c(N4CCC[C@H](C)C4)nccn3c2=O)c1 | -1 | 0.15
Cc1cc(C(=O)Nc2nn(Cc3ccccc3F)cc2Br)c2cnn(C)c2n1 | -2 | 0.34
Cc1nn(Cc2ccccc2)c(C)c1S(=O)(=O)N1CCC(N2CCN(c3ncc(C(F)(F)F)cc3Cl)CC2)CC1 | -10 | 1.08
O=C(C1CCC1)N1CCN(Cc2cccs2)[C@@H]2CS(=O)(=O)C[C@@H]21 | 5 | -0.67
COc1ccc(C(=O)NC[C@@]2(COc3cnccn3)C[C@@H](O)[C@@H](O)C2)cc1 | -5 | 0.74
CN1CC(=O)N(C[C@H](O)COCc2ccc3c(c2)OCO3)C1=O | -2 | 0.18
CS(=O)(=O)C[C@H]1CCCN(C(=O)c2cccc3c2CCCC3)C1 | -17 | 2.25
Cc1cnn(C)c1S(=O)(=O)N1CCCCO1 | 5 | -0.46
COc1ccccc1C(=O)Nc1ccc(OC(=O)c2cnc3onc(C)c3c2)cc1 | -11 | 1.62
CC(C)(CNC(=O)c1coc(COc2ccc3c(c2)OCO3)n1)N1CCCC1 | -15 | 2.32
O=C(NCCc1ccccn1)c1ccc2c3c(cccc13)CC2 | -13 | 1.91
COCc1cc(N2CCN(c3nc(C)cc(C(F)(F)F)n3)CC2)ncn1 | -10 | 1.37
Cc1cc(C)nc(-c2ccc(C(=O)NCCF)cc2)n1 | -4 | 0.48

Structure (SMILES) | % Inhibition [%] | Z score
CO[C@@H](CNC(=O)NC(C)C)c1cccc(Cl)c1 | -7 | 0.95
CNC[C@H]1CCCN1Cc1ccc(OC)c(OC(F)F)c1 | -10 | 1.03
c1ccc(-c2ccccc2OC2CCNCC2)cc1 | -4 | 0.45
O=C(Nc1cnn(CC(=O)N2CCNC(=O)[C@@H]2Cc2ccccc2)c1)c1ccc2c(c1)OCO2 | 5 | -1
CN1CCN(CC[C@H]2CCCCN2C(=O)c2cccnc2N(C)C)CC1 | -4 | 0.93
O=C(Cc1noc(-c2ccsc2)n1)NC1CCCCC1 | -6 | 0.61
O=C(NC1CCCCCCC1)[C@@H]1COc2ccccc2O1 | -10 | 1.17
COCCN1CCN([C@@H](C)Cc2ccc(C)cc2)CCC1=O | -14 | 1.88
Cc1[nH]c(-c2ccc(F)cc2)cc1C(=O)N1CCN(c2cccc(Cl)c2)CC1 | 6 | -1.1
CCCCc1c(C)nn(-c2nc(C)c(C(=O)Nc3ccc(C)c(Cl)c3)s2)c1O | -5 | 0.66
CO[C@H]1[C@H](NC(=O)CC2CCCC2)c2ccccc2C12CCNCC2 | 5 | -0.91
CCNC(=O)CN(CC(=O)NCC)S(=O)(=O)c1ccc(Br)cc1 | -6 | 0.62
Cc1ncsc1CNC(=O)NCCc1nccn1C(F)F | -2 | 0.23
O=C(NC[C@]1(O)CCOc2ccccc21)C(=O)Nc1cccc(N2CCCC2=O)c1 | 0 | -0.01
Cc1nnccc1C(=O)NC1(C(=O)N2CCOCC2)CCCCC1 | -1 | 0.08
CCn1nc(C)c(CNc2ccc(OC)nc2C)c1C | -11 | 1.08
Cc1c2c(c(C)n1C)[C@H](C(=O)NC1CCC(C)CC1)N(c1ccc(Cl)cc1)C2=O (stereo not given in full) | 2 | -0.33
CCOc1ccccc1C1c2[nH]c3ccccc3c2C[C@H]2C(=O)N(CCc3ccc(F)cc3)CC(=O)N12 (stereo not given in full) | 2 | -0.26
N#CC1(C(=O)NC2CCC(C(=O)O)C2)CCCC1 (stereo not given) | -10 | 1.23
O=C(Nc1ccccc1)c1ccc(-c2nc3cccnc3n(C3CCCC3)c2=O)cc1 | -2 | 0.33
CC(=O)c1cccc(C(=O)N2CCC(c3nccn3CC3CC3)CC2)c1 | -4 | 0.39
Cc1ccccc1C(=O)NCc1ccccc1COCc1ccccc1 | -4 | 0.84

Structure (SMILES) | % Inhibition [%] | Z score
CC1CCCC(CNC(=O)NCc2cc(Cl)sc2Cl)O1 (stereo not given) | 0 | -0.03
Cc1cc(C(=O)N2CCC[C@@H]2CNC(=O)OC(C)(C)C)c(C)o1 | -18 | 1.97
Cc1noc(CN2CCN(Cc3cc4c(cc3Cl)OCO4)CCC2=O)n1 | -11 | 2.14
CN(C)[C@@]1(c2nnnn2C2CCCC2)CCN(C(=O)C2CCCC2)C1 | -2 | 0.28
CCc1nc2ccc(Cl)cn2c1C(=O)N1CCc2cnc(N)nc2C1 | -11 | 1.86
Cc1ccc(Cn2nnc3cc(C(=O)N4CCc5ccccc54)ccc32)cc1 | -10 | 1
COC[C@H]1CN(C(=O)CCc2nc3ccccc3[nH]2)CCC1(F)F | -8 | 1.42
Cc1ncnc(C[C@@H]2COc3ccccc3C2)c1C | -12 | 2.09
COc1ccc(Oc2ccc(-c3noc([C@H]4CC(=O)N(c5ccc(C)cc5)C4)n3)cc2)cc1 | -6 | 0.69
CC(C)CN1CCN(C(=O)NCc2ccc(Cl)cc2)[C@@H](C)C1=O | 3 | -0.31
Cc1cccc2c1NC1(CCCC1)[C@@H](C)C2 | -41 | 4.82
COCc1cccc(C(=O)N2CCCC3(CCN(C)CC3)CC2)c1 | -13 | 1.28
COc1ccc(C2NC(=O)C(c3ccc(OC)cc3)NC2=O)cc1 (stereo not given) | 27 | -3.38
COCc1cc(CN(C)C(=O)CCc2scnc2C)n[nH]1 | 0 | 0.02
OC[C@H]1CCCCN1Cc1ccc(OCc2ccccc2F)nc1 | -18 | 2.27
CCOc1ccc(CC(=O)N2CCC3(CC2)N(CCOC)C(=O)CS3(=O)=O)cc1 | -11 | 1.65
Cc1nc(CC(=O)NCC2(N3CCOCC3)CCCCC2)cs1 | -1 | 0.25
Cc1nc(CCCn2ccnc2)n(-c2ccccc2C(=O)O)n1 | -12 | 1.85
CC(C)OC1CC(NC(=O)NC2CCC(F)(F)CC2)C1(C)C (stereo not given) | -10 | 1.45
